The source of these data is paper PMC4336329 (PLoS ONE, 2015).

Molecules are shown by their SMILES. Among all 310,000 compounds or so, about 2,200 (0.71%) showed an effect of 50% or more. Effects have a minus sign here. Some of the results follow.

Chain of human ether-à-go-go-related gene (hERG) potassium channel (Q12809 whole entry, looked up): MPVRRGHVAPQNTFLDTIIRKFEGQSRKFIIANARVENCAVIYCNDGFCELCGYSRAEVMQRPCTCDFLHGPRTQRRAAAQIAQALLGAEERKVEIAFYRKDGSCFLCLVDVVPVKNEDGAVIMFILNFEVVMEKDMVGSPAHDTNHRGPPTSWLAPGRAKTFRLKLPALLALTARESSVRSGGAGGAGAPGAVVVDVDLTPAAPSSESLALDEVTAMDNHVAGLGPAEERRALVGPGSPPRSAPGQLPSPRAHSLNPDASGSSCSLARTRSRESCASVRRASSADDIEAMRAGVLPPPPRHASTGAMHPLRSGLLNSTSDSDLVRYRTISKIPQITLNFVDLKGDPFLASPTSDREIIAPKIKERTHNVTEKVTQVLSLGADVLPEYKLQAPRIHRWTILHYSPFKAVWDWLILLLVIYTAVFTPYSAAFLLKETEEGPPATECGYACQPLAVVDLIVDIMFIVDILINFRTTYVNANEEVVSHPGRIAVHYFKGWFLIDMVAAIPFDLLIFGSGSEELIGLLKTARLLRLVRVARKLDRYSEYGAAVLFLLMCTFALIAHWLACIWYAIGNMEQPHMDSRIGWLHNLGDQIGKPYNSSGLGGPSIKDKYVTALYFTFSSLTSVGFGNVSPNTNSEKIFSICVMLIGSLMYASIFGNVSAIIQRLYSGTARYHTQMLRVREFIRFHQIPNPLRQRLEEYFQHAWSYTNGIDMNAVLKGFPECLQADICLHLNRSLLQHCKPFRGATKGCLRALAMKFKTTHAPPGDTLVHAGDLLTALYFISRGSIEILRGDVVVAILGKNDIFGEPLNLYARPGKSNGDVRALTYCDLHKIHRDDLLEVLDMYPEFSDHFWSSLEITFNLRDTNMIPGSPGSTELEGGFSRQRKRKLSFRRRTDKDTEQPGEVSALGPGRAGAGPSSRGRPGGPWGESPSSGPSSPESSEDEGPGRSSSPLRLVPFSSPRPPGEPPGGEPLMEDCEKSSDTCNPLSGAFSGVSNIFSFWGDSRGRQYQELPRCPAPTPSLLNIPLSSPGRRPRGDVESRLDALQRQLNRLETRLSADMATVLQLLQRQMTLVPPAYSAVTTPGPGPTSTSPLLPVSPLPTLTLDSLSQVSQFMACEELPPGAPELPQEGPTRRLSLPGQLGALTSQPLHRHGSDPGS

This test addresses human ether-à-go-go-related gene (hERG) potassium channel (human, UniProt Q12809). Kind of test: primary screen, population patch clamp on CHO cells stably expressing hERG.
`CC1=C(C(N)=O)C(c2ccccc2)n2nc(-c3cccs3)nc2N1` (stereo not shown): the “hERG current change (%, negative = inhibition) at 1uM” value stood at 1.35%.
Then `COc1cccc(CN2CCN(Cc3cccc4c3OCO4)CC2CCO)c1` (stereo not shown), with 1.79%; and `C/C(=N\NC(=S)NC(C)C)c1ccccc1`, with 8.17%.
Then `COc1ccc(CNc2ncccc2[N+](=O)[O-])cc1`, with 2.91%.
Then `Cc1nc([N+](=O)[O-])c(N2CCN(C)CC2)n1Cc1ccccc1`, with 1.91%.
`CC(=O)c1c(C)[nH]c(C(=O)N2CCN(C(=O)c3ccco3)CC2)c1C`: the “hERG current change (%, negative = inhibition) at 1uM” value is 15.4%.
With `Cc1noc(C)c1COC(=O)c1ccc(N(C)C)cc1` the figure was -3.63%; with `CCCC(=O)Nc1ccc(-c2nc3cc(C)c(C)cc3o2)cc1`, 12.4%.
With `Cc1cc(C(=O)CN2CCCC(C)C2)c(C)n1-c1ccc(F)cc1` (stereo not shown) the figure was 15.3%; with `CC(C)[C@H]1COCCS(=O)(=O)N1Cc1cccc(Cl)c1`, 5.02%; with `Cc1ccc(Cl)cc1N1CCN(Cc2nnnn2Cc2ccco2)CC1`, -1.73%.
For the compound `Cc1ccc(-c2csc3ncnc(-n4nnc5ccccc54)c23)cc1C`, the “hERG current change (%, negative = inhibition) at 1uM” value came to 9.48%.
Then `CN(C)S(=O)(=O)c1ccc(C(=O)N2CCN(S(=O)(=O)c3cccs3)CC2)cc1`, with 11%; and `CC(C)Cn1c2c(c(=O)[nH]c1=O)C(NS(=O)(=O)c1ccc(Cl)cc1)(C(F)(F)F)C(=O)N2` (stereo not shown), with 15.9%; and `COc1ccccc1C(=O)Nc1c2c(nn1-c1ccc([N+](=O)[O-])cc1)CS(=O)(=O)C2`, with 15.7%.
With `CCCCc1ccc(-c2nc(N)n[nH]2)cc1` the figure was 14.1%; with `CC(=O)N1CCC(O)(c2ccc3c(c2)OCO3)CC1`, 15.3%.
As for `O=C(CC1(O)C(=O)N(Cc2ccccc2Cl)c2ccccc21)c1ccco1` (stereo not shown), the “hERG current change (%, negative = inhibition) at 1uM” value was -8.31%.
In the case of `O=C1CCCC(=O)C1C1c2ccccc2CCN1C(=O)CCl` (stereo not shown), the “hERG current change (%, negative = inhibition) at 1uM” value was determined as 13.1%.
Then `CC(C)CCN1NC2(CCC(C)CC2)NC1=S` (stereo not shown), with 12.5%; and `CC(=O)OCC(=O)Nc1c(C)cc(C)cc1C`, with 12.5%; and `CC(=O)Oc1ccc(CCC(C)OC(C)=O)cc1` (stereo not shown), with 13.9%.
With `CCc1nnc(NC(=O)C2CCCN(c3nc(C)cc(C)n3)C2)s1` (stereo not shown) the figure was -8.24%; with `COc1ccc(CC(=O)NC(C)C2COc3ccccc3O2)cc1OC` (stereo not shown), 1.19%; with `CCC(C)NC(=O)c1cn(CC)c2cc(N3CCN(C(=O)c4ccco4)CC3)c(F)cc2c1=O` (stereo not shown), -5.19%.
With `CCN(CCO)C(=O)c1ccc2nc(Cc3ccc(OC)cc3)oc2c1` the figure was 11.8%; with `CN(C(=O)C1CCCCC1)C1CCS(=O)(=O)C1` (stereo not shown), -0.0893%; with `Cc1nnc(SCc2cc([N+](=O)[O-])cc3c2OCOC3)[nH]c1=O`, 7.45%.
Consider `O=C(CO/N=C/c1cccc([N+](=O)[O-])c1)NC1CCCCCC1`, for which the “hERG current change (%, negative = inhibition) at 1uM” value is on record as -3.15%.
On to `CC(=O)N1c2ccccc2C(=O)C1N(C)c1ccc(C)cc1` (stereo not shown), for which the “hERG current change (%, negative = inhibition) at 1uM” value is listed as 1.58%.
As to `Cc1ccc(S(=O)(=O)N2CCC(C(=O)N3CCC[C@H]3C(=O)NCC(C)C)CC2)cc1`, the “hERG current change (%, negative = inhibition) at 1uM” value amounted to 12.2%.
With `CCCCn1c(N)c(N(CCOC)C(=O)COC(=O)COc2cc(C)ccc2Cl)c(=O)[nH]c1=O` the figure was 22.5%; with `COc1c(S(=O)(=O)N2CCN(C)CC2)ccc(Cl)c1Cl`, 17.7%; with `COc1cc(/C=N/NC(=O)C(=O)NCc2ccco2)cc(Br)c1O`, 14.3%.
With `Cc1cc(C)n(C(=O)c2ccc(S(=O)(=O)NCC3CCCO3)cc2)n1` (stereo not shown) the figure was -9.81%; with `O=C(NCc1nnc(SCC(=O)N2CCCC2)o1)c1ccc(F)cc1`, 14.2%; with `O=C(Cc1ccccc1F)Nc1nc(-c2ccc(F)cc2)cs1`, 18.2%.
With `CCOC(=O)CN1C(c2ccccc2O)Nc2ccc(Br)cc2C1c1ccccc1` (stereo not shown) the figure was -3.26%; with `COc1cc(/C=C2/SC(=O)NC2=O)ccc1Oc1ccc([N+](=O)[O-])cc1[N+](=O)[O-]`, 14.1%.
`COc1ccc(C2CC(c3ccc(F)cc3)Nc3nc(N)nn32)cc1OC` (stereo not shown): the “hERG current change (%, negative = inhibition) at 1uM” value amounted to 2.71%.
As to `COc1ccc(-n2c(=O)c3ccccc3n(CC(=O)NC3CCCCC3)c2=O)cc1OC`, the “hERG current change (%, negative = inhibition) at 1uM” value is listed as 14%.
As for `CCC(c1nnnn1Cc1ccc(F)cc1)N1CCN(C2CCCCC2)CC1.Cl` (stereo not shown), the “hERG current change (%, negative = inhibition) at 1uM” value is on record as -25.9%.
Then `O=C(O)c1ccccc1-c1ccccc1C(=O)Nc1ccc(-c2nc3cc(Cl)ccc3o2)cc1`, with 12.9%; and `CN(C)S(=O)(=O)Oc1ccc(Cl)cc1C(=O)Nc1cccc(C(F)(F)F)c1`, with 6.8%.
Then `Cc1c(Cl)cnc(NC(=O)COC(=O)c2ccc3ncsc3c2)c1Cl`, with 0.297%; and `CCc1cccc(NC(=O)Nc2cccs2)c1`, with 2.4%; and `C=CCNc1nc(-c2ccc(OC)cc2OC)cs1.Cl`, with 7.95%.
Take `CCc1cn([C@H]2C[C@H](O)[C@@H](CO)O2)c(=O)[nH]c1=O`: the “hERG current change (%, negative = inhibition) at 1uM” value is on record as 13.8%.
Then `Cc1ccc(CNC(=O)CSc2nc3ccsc3c(=O)n2NC(=O)c2ccccc2)cc1`, with 12.2%.
Then `COc1ccc(-c2[nH]ncc2[C@@H]2C[C@H]3CN(Cc4ccccc4C)C(=O)[C@]34CCCN24)cc1`, with 8.15%.
With `Cc1ccccc1CN1C(=O)CSc2ccc(C(=O)N3CCOCC3)cc21` the figure was 9.75%.
Consider `CCOC(=O)N1CCN(Cc2cccs2)CC1`, for which the “hERG current change (%, negative = inhibition) at 1uM” value is 18.8%.
`CC(=O)Oc1ccc(N(C(C)=O)S(=O)(=O)c2ccc(C)cc2)c2ccccc12`: the “hERG current change (%, negative = inhibition) at 1uM” value stood at 8.46%.
As for `O=C(CSc1nnc2scc(-c3ccccc3)n12)c1ccc2c(c1)OCCO2`, the “hERG current change (%, negative = inhibition) at 1uM” value is given as 8.75%.
Then `CCOc1ccc(CN(C)C(C)C(=O)NCc2ccccc2)cc1` (stereo not shown), with -21.7%; and `CCOC(=O)c1c(NC(=O)c2ccccc2N(C)S(=O)(=O)c2ccccc2)sc2c1CCCC2`, with 9.59%.
Then `O=C(Cn1c(=O)c2cccn2c2ccc(F)cc21)NCCCN1CCN(c2ccccc2F)CC1`, with -14.8%; and `Cc1cc(C)n(CCNCc2c(C(=O)N3C[C@@H](C)O[C@@H](C)C3)nc3ccc(Cl)cn23)n1`, with 15%.
For the compound `CCOC(=O)Cc1csc(NC(=O)CCCN2C(=O)c3ccccc3C2=O)n1`, the “hERG current change (%, negative = inhibition) at 1uM” value worked out at 11.8%.
With `O=C(Cn1nc(-c2ccc(Cl)cc2)ccc1=O)NCCCN1CCN(Cc2ccccc2)CC1` the figure was -15.9%.
With `O=C(c1cccnc1)N1CCC(Oc2ccc(C(=O)N3CCCCO3)cc2)CC1`, the “hERG current change (%, negative = inhibition) at 1uM” value came to 6.32%.
Then `NC(=O)COc1ccc(NC(=O)OCc2ccccc2)cc1`, with 3.93%.
With `CC(=O)c1ccc(C(=O)N2CCCC(Nc3ccc(C(C)C)cc3)C2)s1` (stereo not shown) the figure was 15.3%; with `CCOC(=O)N1CCN(C(=O)C(=O)Nc2ccc3nc4n(c(=O)c3c2)CCCCC4)CC1`, 7.89%; with `CCOC(=O)c1c(C)c(C(=O)NCc2cccs2)c(C)n1CC`, -0.627%.
Then `CC(C)Cn1c(-c2ccc(F)cc2)n[nH]c1=S`, with 11.6%; and `COc1ccccc1CN1CCN(Cc2ccco2)CC1.O=C(O)C(=O)O`, with -0.696%; and `O=C(c1cnn2c(C(F)F)cc(-c3ccccc3)nc12)N1CCOCC1`, with -0.431%.
Regarding `CCC(C)Sc1nnc(NC(=O)c2ccco2)s1` (stereo not shown), the “hERG current change (%, negative = inhibition) at 1uM” value is 11.4%.
In the case of `C=CCc1cccc2cc(C(=O)N3CCN(c4ccccn4)CC3)c(=O)oc12`, the “hERG current change (%, negative = inhibition) at 1uM” value is on record as -7.02%.
Then `COC(=O)c1ccncc1N`, with 12.4%; and `CCOC(=O)CSc1nc(=O)n2ccc(C)cc2n1`, with 18.9%.
With `O=C(Cn1c(=O)oc2ccccc21)Nc1ccc(Cl)cc1` the figure was 14.3%; with `CCCc1[nH]nc2c1C(/C(C)=C/c1ccccc1)C(C#N)=C(N)O2` (stereo not shown), 6.11%.
With `C/C(N)=C(/C#N)C(=O)COC(=O)C1Cc2ccccc2CN1S(C)(=O)=O` (stereo not shown) the figure was 15.8%; with `CCOc1cc(/C=N/NC(=O)CN2CCOCC2)ccc1OCc1ccc(Cl)cc1`, 5.07%; with `COc1ccc(CNC(=O)CCCn2nc(C)n3ccnc3c2=O)cc1`, 10.2%.
On to `COC(=O)C1=C(c2cccc(OC)c2OC)C[C@@H]2CC[C@H]1N2C`, for which the “hERG current change (%, negative = inhibition) at 1uM” value was -1.48%.
Regarding `O=C(CCSc1nc(-c2ccco2)cc(C(F)(F)F)n1)Nc1ccc2c(c1)OCO2`, the “hERG current change (%, negative = inhibition) at 1uM” value turned out to be 8.51%.
With `COCCNC(=O)Nc1ccc(F)cc1` the figure was 16.7%.
Take `CC(=O)Nc1ccc2nc(CN3CCN(CC(C)C)C(CCO)C3)ccc2c1` (stereo not shown): the “hERG current change (%, negative = inhibition) at 1uM” value amounted to 5.3%.
With `O=C(OCC1OC(n2cnc3c(N(C(=O)c4ccccc4)C(=O)c4ccccc4)ncnc32)C(O)C1F)c1ccccc1` (stereo not shown) the figure was -1.26%; with `CC(=O)N1CCc2cc(Br)cc(S(=O)(=O)NCCCN3CCCC(C)C3)c21` (stereo not shown), 8.52%.
With `CCN(CC)CCN(C(=O)c1ccc(C(=O)c2ccccc2)cc1)c1nc2ccc(OC)cc2s1.Cl` the figure was 3.62%.
Then `Fc1cccc(Cl)c1-c1nnc2ccc3ccccc3n12`, with 13.5%; and `Cc1ccc(NC(=O)C(Nc2ccccc2)c2ccccc2)cc1` (stereo not shown), with 5.26%; and `O=C(Oc1cccc2cccnc12)c1cccc(-n2cnnn2)c1`, with 4.63%.
In the case of `CCN(CC)c1ccc(C=O)c(OC)c1`, the “hERG current change (%, negative = inhibition) at 1uM” value stood at 3.69%.
